Results taken from the supplement of paper PMC4967469.

These cell lines were tested with O=C1NC(=O)/C(=C\c2ccc3nccnc3c2)S1 [AS605240] (assay: Viability of human cancer cell lines after 72 h of drug (GDSC screen)). Settings: top dose inferred.
Description: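 Human cancer cell lines in 384-well plates, medium with 10% serum, drug for 72 h over a 256-fold dose range (nine 2-fold or five 4-fold steps up to the top dose). Adherent lines were fixed and stained with the nucleic acid dye Syto60, suspension lines read with resazurin; signal relative to control wells, capped at 0 and 100%. One two-parameter sigmoid per drug and line, fitted in a mixed model over all curves with the slope shared within a line.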

| Cell Line | AUC | IC50 [µM] |
| --- | --- | --- |
| Hs940-T (melanoma, adherent, top dose 20 µM) | 0.9 | > 20 |
| NCI-H1299 (large cell lung carcinoma, adherent, top dose 20 µM) | 0.779 | 10.1 |
| DG-75 (Burkitt lymphoma, suspension, top dose 20 µM) | 0.933 | > 20 |
| PA-1 (ovary, adherent, top dose 20 µM) | 0.6 | 2.2 |
| OCI-M1 (acute myeloid leukaemia, suspension, top dose 20 µM) | 0.268 | 0.333 |
| KOPN-8 (B-cell leukaemia, suspension, top dose 20 µM) | 0.815 | 9.04 |
| EFO-27 (ovary, adherent, top dose 20 µM) | 0.852 | > 20 |
| SBC-3 (small cell lung carcinoma, adherent, top dose 20 µM) | 0.878 | 17.1 |
| RKO (large intestine, adherent, top dose 20 µM) | 0.883 | 18.8 |
| HCC2157 (breast, suspension, top dose 20 µM) | 0.969 | > 20 |
| A427 (non-small cell lung carcinoma, adherent, top dose 20 µM) | 0.878 | > 20 |
| ES1 (Ewing sarcoma, adherent, top dose 20 µM) | 0.896 | > 20 |
| ETK-1 (biliary tract, adherent, top dose 20 µM) | 0.87 | > 20 |
| MZ1-PC (pancreas, adherent, top dose 20 µM) | 0.473 | 1.04 |
| LAMA-84 (chronic myeloid leukaemia, suspension, top dose 20 µM) | 0.566 | 1.89 |
| HSC-3 (head and neck, adherent, top dose 20 µM) | 0.96 | > 20 |
| H2595 (mesothelioma, adherent, top dose 20 µM) | 0.966 | > 20 |
| 697 (lymphoblastic leukaemia, suspension, top dose 20 µM) | 0.415 | 0.77 |
| KNS-42 (glioma, adherent, top dose 20 µM) | 0.879 | > 20 |
| KMH-2 (thyroid, adherent, top dose 20 µM) | 0.938 | > 20 |
| NCI-H2009 (lung adenocarcinoma, adherent, top dose 20 µM) | 0.97 | > 20 |

| Cell Line | AUC | IC50 [µM] |
| --- | --- | --- |
| CADO-ES1 (Ewing sarcoma, suspension, top dose 20 µM) | 0.718 | 5.26 |
| SCC-25 (head and neck, adherent, top dose 20 µM) | 0.817 | 13.1 |
| SBC-5 (small cell lung carcinoma, adherent, top dose 20 µM) | 0.952 | > 20 |
| LB831-BLC (bladder, adherent, top dose 20 µM) | 0.905 | > 20 |
| CAL-51 (breast, adherent, top dose 20 µM) | 0.955 | > 20 |
| NUGC-4 (stomach, adherent, top dose 20 µM) | 0.985 | > 20 |
| SR (lymphoid neoplasm, suspension, top dose 20 µM) | 0.857 | 13.7 |
| OAW-42 (ovary, adherent, top dose 20 µM) | 0.666 | 3.79 |
| NCI-H1755 (lung adenocarcinoma, adherent, top dose 20 µM) | 0.496 | 1.22 |
| NCI-H441 (lung adenocarcinoma, adherent, top dose 20 µM) | 0.874 | > 20 |
| Raji (Burkitt lymphoma, suspension, top dose 20 µM) | 0.899 | > 20 |
| MLMA (hairy cell leukaemia, semi-adherent, top dose 20 µM) | 0.732 | 5.78 |
| RERF-GC-1B (stomach, adherent, top dose 20 µM) | 0.958 | > 20 |
| HCC-15 (lung squamous cell carcinoma, adherent, top dose 20 µM) | 0.806 | 13.7 |
| VA-ES-BJ (soft tissue, adherent, top dose 20 µM) | 0.942 | > 20 |
| IMR-5 (neuroblastoma, adherent, top dose 20 µM) | 0.953 | > 20 |
| NCI-H838 (lung adenocarcinoma, adherent, top dose 20 µM) | 0.969 | > 20 |
| TT2609-C02 (thyroid, adherent, top dose 20 µM) | 0.905 | > 20 |
| HO-1-N-1 (head and neck, adherent, top dose 20 µM) | 0.965 | > 20 |
| MS751 (cervix, adherent, top dose 20 µM) | 0.973 | > 20 |

A lower IC50 marks a more sensitive line; fits outside the tested doses are given as limits. AUC is the area under the same curve over the 256-fold range up to the top dose, as a fraction: 1 means no effect, lower means more sensitive. An inferred top dose comes from the curve model; the source does not state it.
